According to PubChem BioAssay AID1159614 (National Center for Advancing Translational Sciences (NCATS), 2016):
The whole screen tested about 45,000 compounds, of which about 65 (0.1%) were called active. Calls come from the whole dose curve; as a rule, active = well fitted activation curve with a large enough effect; inconclusive = small, poorly fitted or top-dose-only effect; inactive = no such curve, though single readings can be large or run the other way. This is one part of the list.

molecular target: Galactocerebrosidase (Homo sapiens) (UniProt P54803); experiment: A Novel Cell-Based Assay to Identify Small Molecules for B -Galactocerebrosidase; settings: 145M-Twi-hGALC-G270D cells (Twitcher mouse brain line with human GALC G270D), HMU-beta-Gal fluorescence, 48 h; series mostly up to 57.5 µM; activation: at the top concentration; note: nearly all actives have a fitted effect of over 65% in size; for activation: 0% is about no effect
Outline: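 Mutant human GALC (G270D), stably expressed in a Twitcher mouse brain cell line lacking endogenous GALC, is measured in live-treated cells via 6-hexadecanoylamino-4-methylumbelliferyl-β-galactoside hydrolysis (0.1 mM final, pH 5.2) with fluorescent detection.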
Potency is the fitted concentration of half-maximal effect.

UniProt P54803, sequence (P54803 whole entry, looked up): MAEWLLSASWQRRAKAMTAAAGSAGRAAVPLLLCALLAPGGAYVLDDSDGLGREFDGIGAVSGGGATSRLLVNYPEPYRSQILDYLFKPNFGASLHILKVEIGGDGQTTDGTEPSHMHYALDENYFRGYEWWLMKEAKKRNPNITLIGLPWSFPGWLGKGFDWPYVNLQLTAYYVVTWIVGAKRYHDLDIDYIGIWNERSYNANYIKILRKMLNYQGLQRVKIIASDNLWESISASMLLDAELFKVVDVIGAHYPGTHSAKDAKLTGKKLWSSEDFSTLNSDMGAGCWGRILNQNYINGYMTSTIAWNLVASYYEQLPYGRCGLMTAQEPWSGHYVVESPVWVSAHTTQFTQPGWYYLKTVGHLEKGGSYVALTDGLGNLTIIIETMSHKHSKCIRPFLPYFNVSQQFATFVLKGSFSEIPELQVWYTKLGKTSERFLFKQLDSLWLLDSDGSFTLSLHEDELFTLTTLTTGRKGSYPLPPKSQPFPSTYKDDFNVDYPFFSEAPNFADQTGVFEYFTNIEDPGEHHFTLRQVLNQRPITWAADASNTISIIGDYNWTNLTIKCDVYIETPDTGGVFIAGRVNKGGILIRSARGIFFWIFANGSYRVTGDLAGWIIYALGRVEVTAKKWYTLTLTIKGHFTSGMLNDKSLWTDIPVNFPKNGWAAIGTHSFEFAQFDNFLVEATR

SMILES	activation	Potency
CCOC(=O)c1cnc2c(ccc3ccccc32)c1Nc1ccc(N(C)C)cc1	inactive: -12.6%	
CCc1ccc(OCC2c3cc(OC)c(OC)cc3CCN2C(=O)c2ccc(S(=O)(=O)N3CCCC3)cc2)cc1 (stereo unspecified)	inactive: -20.3%	
COC(=O)c1ccc2c(=O)n(CCCCCC(=O)NCCc3ccccc3)c(=O)[nH]c2c1	inactive: -13.9%	
Cc1cc(NC(=O)N2CCC(CN3CCCCCC3)CC2)ccc1Br	inactive: -5.93%	
O=C(Cn1ccc2cc(S(=O)(=O)N3CCCCCC3)ccc21)NCc1ccccc1Cl	inactive: -0.02%	
COc1cccc(NC(=O)c2c(C)nn(-c3cccc(C)c3)c2-n2cccc2)c1	inactive: -14.2%	
COc1ccc(C)cc1-n1c(-c2ccc(Cl)cc2)cc2c1CC(C)(C)CC2=O	inactive: -16.5%	
Cc1cccn2c(=O)c3cc(C(=O)NCC(C)C)sc3nc12		active: 3.98 µM
COc1ccc(N2CCN(C(CNS(=O)(=O)c3ccc(OC)c(C)c3)c3ccco3)CC2)cc1 (stereo unspecified)	inactive: -13.6%	
Cc1noc2ncnc(N3CCN(c4cccc(C(F)(F)F)c4)CC3)c12	inactive: -52.2%	
Nc1c(C(=O)Nc2ccccc2Br)sc2nc(-c3cccs3)ccc12	inactive: -7.9%	
O=C(CSc1nc2c([nH]c3ccccc32)c(=O)n1-c1ccccc1)Nc1ccc2c(c1)OCO2	inactive: -26.6%	
COc1ccc(-c2nc(Cn3c(=O)cc(C)c4c(C)nn(-c5ccccc5)c43)c(C)o2)cc1OC	inactive: -5.46%	
CN(CCOc1ccc(CC2SC(=O)NC2=O)cc1)c1ccccn1 (stereo unspecified)	inactive: -9.12%	
CCC1Sc2ccccc2N(CC(=O)NCc2ccc(C)cc2)C1=O (stereo unspecified)	inactive: -17.5%	
O=S(=O)(c1ccc(Cl)cc1)c1nnn2c1nc(NC1CCCC1)c1sccc12	inactive: -0.504%	
Cc1ccc(CNC(=O)c2ccc(CSc3nc4ccncc4n3Cc3ccc(C)cc3)cc2)cc1	inactive: -6.23%	
COc1cccc(C(=O)Nc2ccc3nc(SCC(=O)N(C)c4ccccc4)sc3c2)c1	inactive: 19.4%	
CCOc1ccc(NC(=O)c2c(C)oc3nc(C)nc(N4CCCC4)c23)cc1	inactive: -5.33%	
O=C(NCCc1ccc(Cl)cc1)C1CCN(Cc2cc3ccccc3n2Cc2ccccc2)CC1	inactive: 1.18%	
COc1ccc(CCNC(=O)CCc2cn(Cc3ccccc3Cl)c3ccccc23)c(OC)c1	inactive: -0.299%	
Cc1ccc(-n2nc(C)c3c(C)c(CCC(=O)NC(C)c4ccccc4)c(C)nc32)cc1 (stereo unspecified)	inactive: -0.577%	
Cc1ccc(Cc2nc3ccccc3nc2SCC(=O)N2CCC(C)CC2)cc1	inactive: -36.8%	
Cc1ccc(NC(=O)Cn2c(=O)n(-c3ccc(C)cc3)c(=O)c3c2cnn3C)cc1	inactive: -17.2%	
Fc1ccc(CN2CCc3nc(N4CCN(c5ccccc5F)CC4)ncc3C2)c(F)c1	inactive: -8.65%	
CCOc1ccc(-c2cc(NC(=O)c3ccccc3)c(C(=O)OC)s2)cc1	inactive: -10.2%	
